In all, about 48,000 compounds went through this assay and about 450 (0.94%) were called active. Another 19% or so got no clear call; they are omitted. The call rests on the fitted dose curve; in most records, active means well fitted inhibition curve with a large enough effect; inconclusive means small, poorly fitted or top-dose-only effect; inactive means no such curve, though single readings can be large or run the other way. This is one part of the list.
test: Primary qHTS for Identification of Small Molecule Inhibitors of Huntingtin Promoter Activity; conditions: HEK293 HTT promoter firefly luciferase reporter (activity 0% = vehicle and -100% = no light), 24 h; series mostly up to 57.5 µM; activity change, negative = inhibition: at the top concentration; further: nearly all actives have a fitted effect of over 50% in size
How it was run: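 HEK293 luciferase promoter-reporter cells (2,500/well) plated 24 h, then compounds added at up to 57.5 uM final for 24 h at 37 °C. Firefly luminescence by Dual-Glo, normalized to vehicle (0%) and zero RLU (-100%).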

Activity change, negative = inhibition, inactive:
Cc1ccccc1Cn1c2ccccc2c2cnn(CC(=O)NCc3cccc(Cl)c3)c(=O)c21 -24.4%
CCOC(=O)c1ccc(CN(Cc2ccc(F)cc2)S(=O)(=O)c2ccc(F)c(C(=O)Nc3cc(Cl)ccc3OC)c2)cc1 -12.1%
Cc1ccc(N2CCN(C(=O)c3c(C)oc4ncn(C)c(=O)c34)CC2)c(C)c1 11.8%
Cc1ccc(NC(=O)CSc2nc3c(oc4ccccc43)c(=O)n2Cc2ccco2)cc1F -10.7%
Cc1nc(-n2nc(C)c(Cc3ccc(Cl)cc3)c2C)sc1C(=O)N1CCC(C)CC1 -3.53%
CC(C)c1ccc(OCC(=O)Nc2ccc(S(=O)(=O)Nc3ncccn3)cc2)cc1 -7.67%
Cn1cc(-c2cc3n(n2)CCC(=O)N3CCCC(=O)Nc2ccc(Cl)cc2)c2ccccc21 -18.5%
CC(C)OC(=O)c1c(NC(=O)c2cccc(C(F)(F)F)c2)sc2c1CCCC2 0.786%
O=C1CC(c2ccccc2)Sc2ccccc2N1Cc1ccccc1F (configuration not stated) -26.8%
COc1ccc(NC(=O)Cn2ccn(-c3ccc(F)c(F)c3)c(=O)c2=O)cc1Cl 2%
CN(C)CCCSc1ccccc1NC(=O)/C=C/c1ccccc1 0.964%
COc1cccc(CNC(=O)c2sc3nc[nH]c(=O)c3c2C)c1 -2.31%
COc1ccc(CNC(=O)CCC2N=C3c4ccccc4N=C(SCC(=O)NCCc4ccc(OC)c(OC)c4)N3C2=O)cc1 (configuration not stated) -13.7%
CN[C@H]1[C@@H](O[C@@H]2[C@H](O[C@@H]3[C@@H](O)[C@@H](O)[C@@H](N=C(N)N)[C@@H](O)[C@@H]3N=C(N)N)O[C@H](C)[C@@]2(O)C=O)O[C@@H](CO)[C@@H](O)[C@H]1O 7.17% [at 19.1 µM]
COc1ccc(C)c2sc(NC(=O)c3ccc(S(=O)(=O)N4CCOCC4)cc3)nc12 -1.37%
COc1cccc(N2CCN(C(=O)c3cnc4c(-c5ccc(F)cc5)c(C)nn4c3C)CC2)c1 -18.2%
COc1ccc(C2Nc3ccccc3-c3cc(C)nn32)c(OC)c1 (configuration not stated) -2.13%
COC(=O)c1ccccc1NS(=O)(=O)c1cc2c3c(c1)CC(=O)N3CCC2 -21.5%
CCN(CC)S(=O)(=O)c1ccc2c(c1)N(CC(=O)Nc1ccc(Cl)cc1)C(=O)C1CCCN21 (configuration not stated) -16%
CC1=C(C(=O)Nc2cc3cn[nH]c3cc2F)C(c2ccc(Cl)cc2F)N=C(c2ccnc(Cl)c2)N1 (configuration not stated) -24.7%
CCOc1ccc2nc(N(Cc3cccnc3)C(=O)c3cccs3)sc2c1 27.6%
COc1cccc(-c2nc(Cn3c(=O)cc(C)c4c(C)nn(-c5ccccc5)c43)c(C)o2)c1OC -30%
CCCCCOc1ccc(NC(=O)Cn2c(-c3nonc3N)nc3ccccc32)cc1 -15%
COc1ccc(-c2nc3ccccc3n2Cc2ccccc2)cc1 -29.7%
CC1=C(C(=O)Nc2ccccc2)C(c2ccccn2)n2nc(SCc3ccccc3)nc2N1 (configuration not stated) -12.1%
Cc1ccc(-n2nc(C)c3c(C(=O)Nc4ccccc4C(F)(F)F)cc(C)nc32)cc1 -27%
CCCN(C(=O)c1cc2c(=O)oc3ccc(C)cc3c2s1)c1ccc(OCC)cc1 -12.4%
CCSc1nc(-c2cccc(Cl)c2)nc2c1Cc1c(CO)cnc(C)c1O2 -6.36%
COc1cccc(CNC(=O)Cn2nc(C)n3c(cc4cc(C)ccc43)c2=O)c1OC -2.31%
CCc1nn(CC(=O)N2CCN(c3cccc(C)c3)C(C)C2)c(=O)c2cc3sccc3n12 (configuration not stated) -8.78%
CCOCCCNC(=O)C(c1ccc(C)cc1)N(Cc1ccc2c(c1)OCO2)C(=O)c1ccccc1O (configuration not stated) -13.6%
O=C(CSc1nnc2scc(-c3ccc(Cl)cc3)n12)Nc1ccc(F)cc1 -11.1%
COc1ccccc1C(=O)NC1(C(F)(F)F)NC(=O)N(CCc2ccccc2)C1=O (configuration not stated) -9.79%
COC(=O)[C@H]1[C@H]2C[C@@H]3c4[nH]c5cc(OC)ccc5c4CCN3C[C@H]2C[C@@H](OC(=O)c2cc(OC)c(OC)c(OC)c2)[C@@H]1OC -7.11%
Cc1ccc(Nc2c(-c3cccnc3)nc3ccc(C)cn23)cc1 -20.1%
O=C(CSc1nc2c([nH]c3ccccc32)c(=O)n1-c1ccccc1)Nc1cccc(C(F)(F)F)c1 -24.3%
Cc1ccc(N(C)C(=O)Cn2ncc3c([nH]c4ccccc43)c2=O)cc1C -2.52%
COC(=O)c1cc(-c2ccc(Cl)cc2)c2c(=O)[nH]c(=O)n(C)c2n1 -11.2%
CCOCCCNC(=O)C1CCN(c2nc3ccc(C)cc3[nH]2)CC1 11%
COc1ccc(NC(=O)CCc2c(C)nn(-c3ccc(N4CCCC4)nn3)c2C)cc1Cl 63.6%
Cc1ccc(Cn2c(=O)n(CCc3ccccc3)c(=O)c3sc4ccccc4c32)cc1 14.9%
COc1ccc(N2CCN(C(=O)Cn3cnc4sc(C)c(S(=O)(=O)N5CCCCC5)c4c3=O)CC2)cc1 -9.49%
Cc1ccc(NC(=O)CCn2cccn2)c(C)c1 7.31%
Cc1ccc(S(=O)(=O)NC(=O)NC2CCCCCCC2)cc1 7.27%
O=C(CSc1cn(CCNC(=O)c2ccccc2F)c2ccccc12)Nc1ccc2c(c1)OCCO2 -5.85%
COCCn1c(C)cc(O)c(C(c2ccccc2)N2CCN(c3ccccc3F)CC2)c1=O (configuration not stated) -6.65%
C=CCc1ccc(O)c(-c2ccc(O)c(CC=C)c2)c1 -14.3%
COc1cc([C@@H]2c3cc4c(cc3[C@H](O)[C@H]3COC(=O)[C@H]23)OCO4)cc(OC)c1OC
O=C(O)CN(CCOCCOCCN(CC(=O)O)CC(=O)O)CC(=O)O -3.32% [at 0.739 µM]
CC(Nc1ccc(-c2nc(-c3cccnc3)no2)cc1[N+](=O)[O-])c1ccccc1 (configuration not stated) -4.76%
COc1ccccc1-c1nc(CNC(=O)NC2CCCCC2)c(C)o1 -4.52%
Cc1ccc(NC(=O)CCn2nc(C)c3c(C)n(-c4ccccc4)nc3c2=O)cc1Cl -7.66%
CC1CCCCN1Cc1nc2c(c(=O)n(C)c(=O)n2C)n1Cc1ccc(Br)cc1 (configuration not stated) -0.816%
COc1ccc(NC(=O)c2c(-c3ccc(C)cc3)nnc3ccccc23)cc1OC 12.8%
Cc1ccc2c(Sc3ccc(Cl)cc3)c(C(=O)N3CCCCC3)[nH]c2c1 -20.3%
CC(C)C[C@H](NC(=O)[C@@H](O)[C@H](N)Cc1ccccc1)C(=O)O -14.2%
CC(C)c1ccc(NC(=O)c2cn(C3CCCC3)c(=O)c3c2c2ccccc2n3C)cc1 -26.5%
Cc1ccc(CNC(=O)Cn2nc(C)n3cccc3c2=O)cc1 2.42%
Cc1ccc(-n2ncc(C(=O)N3CCN(c4cccc(C)c4)C(C)C3)c2C2CCN(C(=O)OC(C)(C)C)CC2)cc1 (configuration not stated) -4.15%
Cc1nn(CCCC(=O)NCc2ccc(F)cc2)c(=O)c2c1sc1ccccc12 9.44%
CCN1CCSc2ccc(C(=O)NC(C)c3ccccc3)cc21 (configuration not stated) -15.6%
CCOc1ccc2nc(NC(=O)c3cc(=O)c4ccc(C)cc4o3)sc2c1 5.37%
Cc1cc(C)cc(C(=O)Nc2ccc(-c3nc4ncccc4o3)cc2)c1 10.2%
COc1c(C)cc(S(=O)(=O)NCCc2c(C)[nH]c3ccccc23)c(C)c1C -5.36%
CCOC(=O)c1ccc(NC(=O)CCCc2nc(-c3ccccc3Cl)no2)cc1 -18.9%
CCOc1ccc(-c2cc(NC(=O)Nc3cccc(C(C)=O)c3)c(C(=O)OC)s2)cc1 70.7%
COc1ccc(OC)c(NC(=O)C2CCCN(S(=O)(=O)c3c(C)nn(C)c3C)C2)c1 (configuration not stated) -7.88%
Cc1ccc(NC(=O)c2cnn3c(C(F)F)cc(-c4ccccc4)nc23)c(C)c1 -13.1%
Cc1ccc(NC(=O)Nc2nnc(N(CC(C)C)CC(C)C)s2)cc1Cl 15.5%
COc1cccc(N2CCN(C(=O)C(CCSC)NS(=O)(=O)c3ccc4c(c3)oc(=O)n4C)CC2)c1 (configuration not stated) 0.338%
O=C(O)c1ccc2c(c1)ncn2-c1ccc(F)c(F)c1 1%
COc1ccc(NC(=O)C2=C(C)Nc3ncnn3C2c2ccc(O)cc2)cc1 (configuration not stated) -8.39%
COc1ccc(OC)c(NC(=O)c2cc3c(=O)oc4ccccc4c3s2)c1 -4.55%
CCN(CC)c1nn2c(=O)c(C(=O)NCCc3ccccc3)cnc2s1 6.8%
Cc1ccc(C)c(NC(=O)c2ccc3c(O)c(S(=O)(=O)c4ccc(Cl)cc4)c(=O)[nH]c3c2)c1 -6.37%
Cc1cc2c(cc1S(=O)(=O)NCc1ccccc1Cl)OCCN2C -2.61%
CCCCSCCCNC(=O)CN1C(=O)c2cccnc2Oc2ccc(Cl)cc21 2.58%
Fc1ccc(-c2noc3ncnc(N4CCN(c5ccccc5)CC4)c23)cc1 -25.3%
COc1ccc(S(=O)(=O)N2CCN(c3ccccc3F)CC2)cc1-c1noc(C)n1 7.89%
O=C(NCc1ccc(F)cc1)c1ccc2c(Cl)c3c(nc2c1)CCCC3 -19.3%
CCOC(=O)c1ccccc1NC(=O)C(=O)Nc1ccc2nc3n(c(=O)c2c1)CCCCC3 -21%
COc1ccc(NC(=O)C2CCN(S(=O)(=O)c3ccc4[nH]c(=O)ccc4c3)CC2)c(OC)c1 -6.54%
Cc1cn2c(=O)cc(COc3cccc(NC(=O)c4ccccc4C)c3)nc2s1 -15.3%
COc1ccc(OC)c(NC(=O)Cc2coc3ccc(C(C)C)cc23)c1 -30.4%
CCOC(=O)c1[nH]c(C)c(CCC(=O)NCc2ccccc2)c1C -8.49%
CCOC(=O)c1c(-c2ccccc2)oc2ccc(N(C(C)=O)S(=O)(=O)c3cc(C)ccc3C)cc12 0.665%
CCc1c(C)nc(SCC(=O)N2CCN(c3ccccc3OC)CC2)[nH]c1=O -6.37%
CCOC(=O)c1ccccc1NC(=O)Cn1cc(C(=O)c2cccc(OC)c2)c(=O)c2ccc(C)nc21 -8.23%
CCOC(=O)c1c(C)[nH]c(CCC(=O)NCCCN2CCN(c3ccc(F)cc3)CC2)c1C -21.2%
Cc1cccc(-c2nc(S(=O)(=O)c3ccc(F)cc3)c(N3CCN(c4ccccc4)CC3)o2)c1 -4.86%
Cc1ccc(CCNC(=O)c2ccc3c(c2)N(Cc2cccc(C)c2)C(=O)c2ccccc2S3(=O)=O)cc1 -4.32%
CC(C)c1ccc(NC(=O)c2cc3c(s2)-c2ccccc2SC3)cc1 -17.5%
